# Test results published in PubChem BioAssay AID1508624 (National Center for Advancing Translational Sciences (NCATS), 2021).
# The campaign covered roughly 48,000 compounds. About 120 (0.25%) were called active. Not shown: some 4% with an inconclusive outcome. Calls follow the shape of the dose curve; as a rule, active = well fitted activation curve with a large enough effect; inconclusive = small, poorly fitted or top-dose-only effect, or another doubt; inactive = no such curve, though single readings can be large or run the other way. The list shows a part of the results.
# Assay: Primary qHTS for Identification of Small Molecule Activators of Huntingtin-Antisense Promoter Activity; also: nearly all actives have a fitted effect of over 55% in size
# Settings: HEK293 HTT-AS promoter firefly luciferase reporter, 24 h; series mostly up to 57.5 µM; activity change, positive = activation: at the top concentration
# Method in brief: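 Luminescence was read after Dual-Glo reagent and a 10 min room-temperature incubation. Values were normalized to vehicle (0% activity) and zero RLU (-100% activity). Reporter HEK293 cells had been exposed to compounds (up to 57.5 uM final) for 24 h.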
row,Compound,"activity change, positive = activation"
1,CCc1ccc(-c2cc(C)no2)cc1S(=O)(=O)Nc1cc(OC)c(OC)c(OC)c1,inactive: -26.5%
2,COc1ccc(C2=C(C)C(=NCc3ccc(OC(C)C)cc3)NS2(=O)=O)cc1,inactive: -11.1%
3,Cc1ccc2c(c1)sc1nc(=O)n(-c3ccc(Cl)c(Cl)c3)c(=O)n12,inactive: -21.3%
4,Cc1ccc(NC(=O)C2CCN(C(=O)c3cnn(-c4ccccc4)c3-n3cccc3)CC2)cc1C,inactive: -34.2%
5,O=C(CN1CCCN(Cc2cccc(F)c2)S1(=O)=O)Nc1ccc2c(c1)OCCO2,inactive: -7.38%
6,O=C(NCC(c1cccnc1)N1CCc2ccccc2C1)C(=O)Nc1ccc(F)cc1F (centres undefined),inactive: -0.795%
7,Cc1cccc(-c2nc(C)c(CCNC(=O)c3cccs3)s2)c1,inactive: 17.2%
8,CC(C)c1ccc(NC(=O)CCNS(=O)(=O)c2ccc3c(c2)oc(=O)n3C)cc1,inactive: -8.44%
9,CCS(=O)(=O)c1ncc(Cl)c(C(=O)Nc2c(C(=O)c3ccc(C)cc3)oc3ccccc23)n1,inactive: 4.46%
10,Cc1ccc(-n2ncc(C(=O)N3CCN(C(=O)c4ccco4)CC3)c2C2CCN(C(=O)OC(C)(C)C)CC2)cc1,inactive: -6.82%
11,COC(=O)c1nnn(-c2ccc(Cl)cc2)c1C(=O)OC,inactive: -0.944%
12,O=C(CCS(=O)(=O)c1nc(-c2ccc3c(c2)OCO3)cc(C(F)(F)F)n1)Nc1ccc(F)cc1F,inactive: 2.95%
13,O=C(CSc1oc(-c2ccc(F)cc2)nc1S(=O)(=O)c1ccc(Cl)cc1)c1ccccc1,inactive: -19.3%
14,O=C(c1ccc2c(c1)N(Cc1cccc(Cl)c1)C(=O)c1ccccc1S2(=O)=O)N1CCCCCC1,inactive: -33.7%
15,Cc1cccc(CCNC(=O)c2nn(C)c3c2CSc2ccccc2-3)c1,inactive: -16.8%
16,Cc1nn2c(=O)cc(COC(=O)C(c3ccccc3)c3ccccc3)nc2s1,inactive: -14.6%
17,Cc1ccc2c(c1)N(C(=O)N1CCC(C(=O)NCc3cccs3)CC1)CC(C)O2 (centres undefined),inactive: -25.9%
18,COc1ccc(CNC(=O)c2cc3c(=O)[nH]c4ccccc4c3n2C)c(OC)c1,inactive: -7.6%
19,COc1ccc(Cl)cc1NC(=O)NCc1noc2ccccc12,inactive: -16.6%
20,COc1ccc(CCNC(=O)CCCn2c(=O)c3ccccc3n(CC(=O)Nc3ccc(C)cc3Cl)c2=O)cc1OC,inactive: -43.4%
21,Cc1cccc(N(CC(=O)NCCSc2ccc(Cl)cc2)S(C)(=O)=O)c1C,inactive: -40.9%
22,Cc1ccc(-c2c(C(=O)N(C)Cc3ccccc3)oc(=O)c3ccccc23)cc1,inactive: -30%
23,CC(CC(=O)NCc1ccc(Cl)cc1Cl)CC1=NS(=O)(=O)c2ccccc2N1 (centres undefined),inactive: -29.9%
24,O=c1oc2c(O)c(O)cc3c(=O)oc4c(O)c(O)cc1c4c23,inactive

row,Compound,"activity change, positive = activation"
1,COc1ccc(CCNC(=O)c2cc(=O)c3c(C)cc(C)cc3o2)cc1OC,"inactive: 7.66% [at 11.5 µM, percent change from vehicle, -100% = no light]"
2,COc1cc2c(cc1OC)n(CC(=O)Nc1ccccc1)c(=O)n1nc(-c3ccccc3)nc21,inactive: -16.7%
3,COC(=O)c1ccc(NC(=O)C(=O)NCCc2sc3nc(-c4ccc(OC)cc4)nn3c2C)cc1,inactive: 14.5%
4,O=C(CCn1c(=O)c2cccn2c2cccnc21)NCc1ccc(Cl)cc1,inactive: -3.5%
5,COc1ccccc1NC(=O)C1=C(C)Nc2c(C(=O)Nc3cccc(C)c3)cnn2C1c1ccccc1C (centres undefined),inactive: -9.1%
6,Cc1ccc(/C=C/c2nc3ccccc3n2S(=O)(=O)c2cccc(Cl)c2)cc1,inactive: 31.1%
7,Cc1cccc(OC(=O)c2nc(SCc3ccccc3F)ncc2Cl)c1,inactive: -4.86%
8,CCOC(=O)c1ccc(NC(=O)Cn2cc(C(=O)c3cccs3)c3ccccc32)cc1,inactive: -23.9%
9,Cc1ccc(Nc2nc3c(S(=O)(=O)c4ccccc4)nnn3c3ccc(Cl)cc23)c(C)c1,inactive: -2.19%
10,COc1cc2nc(Nc3ccc(C)c(C)c3)nc(N)c2cc1OC,inactive: -17.8%
11,CCCCOC(=O)c1c(C)oc2ccc(NS(=O)(=O)c3ccc(F)cc3C)cc12,inactive: -23.6%
12,CCOc1ccc(CN(C(=O)c2cc(=O)c3cc(Cl)ccc3o2)C2CCS(=O)(=O)C2)cc1 (centres undefined),inactive: -11%
13,CCc1ccc(CNc2ncnc3onc(-c4ccc(Cl)cc4)c23)cc1,inactive: -34.6%
14,COc1ccc(-c2cc(C(F)(F)F)n3nc(C(=O)Nc4sc5c(c4C(=O)OC(C)C)CCCC5)cc3n2)cc1OC,inactive: -0.64%
15,NC(N)=NC(=O)c1nc(Cl)c(N)nc1N,inactive
16,COc1ccc(N2CCN(C(CNC(=O)c3cccc(OC)c3)c3cccnc3)CC2)cc1 (centres undefined),inactive: -22.8%
17,CCN(CC)C(=O)C1CCN(c2cc(C)nc3c(-c4ccc(OC)c(OC)c4)c(C)nn23)CC1,inactive: -5.8%
18,Cn1c(C(=O)N2CCCC(C(=O)N3CCN(c4ccccc4)CC3)C2)cc2sccc21 (centres undefined),inactive: -4.29%
19,CCCCNC(=O)CSC1=Nc2ccccc2C2=NC(CCC(=O)NCc3ccccc3OC)C(=O)N12 (centres undefined),inactive: 2.72%
20,CCc1ccc(NC(=O)CSc2cn(CC(=O)N3CCOCC3)c3ccccc23)cc1,inactive: 13.9%
21,COc1ccc(NC(=O)Cn2c(=O)n(-c3ccc(C)c(C)c3)c(=O)c3c4c(sc32)CCCCC4)cc1Cl,inactive: -12%
22,NS(=O)(=O)c1cc2c(cc1Cl)NC(C1CC3C=CC1C3)NS2(=O)=O (centres undefined),inactive: -3.55%
23,O=C1NS(=O)(=O)c2ccccc21,inactive: -1.59%
24,COc1ccc(CNC(=O)Cn2c(=O)n3nc(-c4cccc(F)c4)nc3c3ccccc32)cc1OC,inactive: 1.1%

row,Compound,"activity change, positive = activation"
1,COc1ccc(CNC(=O)C2=Cc3cccc(OC)c3OC2)cc1OC,inactive: -19.1%
2,COc1ccc(OC)c(NS(=O)(=O)c2ccc3c(c2)CCCN3C(=O)C2CCC2)c1,inactive: -13.6%
3,O=C(Nc1ccc(F)cc1F)c1cc(CN2CCOCC2)on1,inactive: 11.1%
4,CCc1ccc(CNC(=O)c2ccc(-n3c(C)cc4c3CCC(C)C4)cc2)cc1 (centres undefined),inactive: 7.43%
5,COc1cccc(C(c2sc3nc(-c4ccco4)nn3c2O)N2CCC3(CC2)OCCO3)c1 (centres undefined),inactive: -6.48%
6,Cc1ccc(S(=O)(=O)Nc2ccc3c(c2)CCCN3C(=O)c2cccs2)cc1C,inactive: -26.6%
7,Cc1cccc(NC(=O)C(Cc2ccccc2)N2Cc3ccccc3C2=O)c1C (centres undefined),inactive: -7.02%
8,CCc1nn(CC(=O)NCCN(CC(C)C)CC(C)C)c(=O)c2cc3sc(C)cc3n12,inactive: -12.1%
9,O=C(NCC(c1ccc2c(c1)OCO2)N1CCOCC1)C(=O)Nc1ccc(Cl)cc1 (centres undefined),inactive: -10.3%
10,Cc1ccccc1OCCSc1nnc(-c2ccc([N+](=O)[O-])cc2)o1,inactive: 2.32%
11,CC(=O)CC(c1ccccc1)c1c(O)c2ccccc2oc1=O (centres undefined),inactive
12,Oc1cccc(-c2nc(-c3cccs3)c(-c3cccs3)[nH]2)c1,inactive: -21.5%
13,COc1ccccc1NC(=O)c1cc2c(n(-c3ccc(C)cc3)c1=O)CC(C)(C)CC2=O,inactive: -6.74%
14,O=C(c1ccc2c(c1)N(Cc1cccc(Cl)c1)C(=O)c1ccccc1S2(=O)=O)N1CCN(Cc2ccccc2)CC1,inactive: -27.2%
15,CCc1cc2c(cc3c(=O)n(CC(=O)NC(C)C)nc(CC)n32)s1,inactive: 3.68%
16,COc1ccc(CNC(=O)CSCc2ccc(C)cc2)c(OC)c1,inactive: -4.94%
17,CCC1CCCCN1CCCNC(=O)c1sc2nc(C)cc(C)c2c1-n1cccc1 (centres undefined),inactive: -3.68%
18,Cn1c(=O)oc2cc(S(=O)(=O)N3CCCC(C(=O)N4CCN(c5ccc(F)cc5)CC4)C3)ccc21 (centres undefined),inactive: -27.3%
19,O=C(NCCCN1CCN(c2ccccc2)CC1)c1ccc2nc(CCc3ccccc3)oc2c1,inactive: -22.5%
20,CC(Oc1ccc(Br)cc1)C(=O)N(Cc1nc(-c2ccccc2)no1)C(C)C (centres undefined),inactive: -50.2%
21,Cc1ccccc1OCC(=O)Nc1nnc(S(=O)(=O)N2CCCCCC2)s1,inactive: -28.6%
22,CCc1nn2c(=O)cc(COC(=O)c3ccccc3NC(=O)c3ccc(C(C)(C)C)cc3)nc2s1,inactive: 17.4%
23,c1coc(CNc2ncnc3nc[nH]c23)c1,inactive: -8.99%
24,CSc1cccc(NC(=O)C2CCCN(S(=O)(=O)c3ccc4c(c3)CCCN4C(C)=O)C2)c1 (centres undefined),inactive: -38.7%

row,Compound,"activity change, positive = activation"
1,CN(C)CCCOC1(Cc2ccccc2)CCCCCC1,inactive: -9.44%
2,COc1ccc(-c2nc(CSc3nnc(C)n4c3cc3sccc34)c(C)o2)cc1,inactive: -15.5%
3,O=C(Nc1c(C(=O)N2CCN(c3ccccc3F)CC2)oc2ccccc12)c1ccc(Br)o1,inactive: -26.7%
4,Oc1ccccc1-c1nc2ccc(Cl)cn2c1Nc1ccc2c(c1)OCCO2,inactive: -11.4%
5,CCS(=O)(=O)N1CCc2cc(C(=O)Nc3cccc(NC(C)=O)c3)ccc21,inactive: -4.99%
6,COc1ccc(-c2ccc(=O)n(CC(=O)Nc3ccccc3C(F)(F)F)n2)cc1,inactive: -8.02%
7,Cc1ccc(C2c3[nH]c4ccccc4c3CCN2C(=O)CSc2ccccc2)cc1 (centres undefined),inactive: -31.2%
8,COc1cc(C2c3c(-c4ccccc4O)n[nH]c3C(=O)N2Cc2ccncc2)ccc1O (centres undefined),inactive: -8.01%
9,COc1c(C)c2c(c(O)c1CC=C(C)CCC(=O)OCCN1CCOCC1)C(=O)OC2,inactive: -26.2%
10,Cc1ccccc1NC(=O)c1ccccc1NC(=O)c1ccccc1Cl,inactive: -4.77%
11,Cc1cc(OCCCSc2nc(-c3ccc(C(C)(C)C)cc3)nc3cc(=O)[nH]n23)ccc1Cl,inactive: -15.2%
12,CCc1ccc(NC(=O)CSc2ccc3nnc(CCNS(=O)(=O)c4ccc(OC)cc4)n3n2)cc1,inactive: -17.6%
13,CCc1ccc(NC(=O)C2CCN(c3cc(C)nc4c(-c5ccc(Cl)cc5)c(C)nn34)CC2)cc1,inactive: 18.9%
14,Cc1nc2ccc(S(=O)(=O)CCC(=O)Nc3ccc(F)cc3C)cc2s1,inactive: -10.2%
15,CC(C)c1ccc(NC(=O)CCCc2nc(-c3ccc(Cl)cc3)no2)cc1,inactive: -3.79%
16,COc1cc(Cl)c(NC(=O)C2CCN(S(=O)(=O)c3c(C)noc3/C=C/c3ccccc3F)CC2)c(OC)c1,inactive: 19.1%
17,O=C(CCCn1c(=O)[nH]c2ccccc2c1=O)NCc1ccccc1Cl,inactive: -4.68%
18,COc1cccc(NC(=O)CSc2nc3ccc(NC(=O)c4ccco4)cc3s2)c1,inactive: -9.31%
19,CCc1nn(CC(=O)NCCCOC)c(=O)c2cc3occc3n12,inactive: -5.32%
20,O=C(Cn1cnc2c(nc3n2CCCCC3)c1=O)Nc1ccc(F)cc1,inactive: 3.6%
21,CCCN(CCC)CCCNC(=O)Cn1cnc2onc(-c3ccc(F)cc3)c2c1=O,inactive: -3.75%
22,COc1ccc(S(=O)(=O)N2c3ccc(Cl)cc3[C@@](O)(c3ccccc3Cl)[C@H]2C(=O)N2CCC[C@@H]2C(N)=O)cc1OC,inactive: -8.78%
